# In paper PMC4336329 (PLoS ONE, 2015):
# Hit rate of the full screen: of about 310,000 compounds, about 14,000 (4.5%) showed an effect of 50% or more. The effect is printed as a negative number. The list shows a part of the results.
# Target: human ether-à-go-go-related gene (hERG) potassium channel (human, UniProt Q12809)
# Assay: primary screen, population patch clamp on CHO cells stably expressing hERG
# 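Also: peak tail current of the secondary pulse compared with the same well before compound.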
# Sequence of human ether-à-go-go-related gene (hERG) potassium channel (Q12809 whole entry, looked up): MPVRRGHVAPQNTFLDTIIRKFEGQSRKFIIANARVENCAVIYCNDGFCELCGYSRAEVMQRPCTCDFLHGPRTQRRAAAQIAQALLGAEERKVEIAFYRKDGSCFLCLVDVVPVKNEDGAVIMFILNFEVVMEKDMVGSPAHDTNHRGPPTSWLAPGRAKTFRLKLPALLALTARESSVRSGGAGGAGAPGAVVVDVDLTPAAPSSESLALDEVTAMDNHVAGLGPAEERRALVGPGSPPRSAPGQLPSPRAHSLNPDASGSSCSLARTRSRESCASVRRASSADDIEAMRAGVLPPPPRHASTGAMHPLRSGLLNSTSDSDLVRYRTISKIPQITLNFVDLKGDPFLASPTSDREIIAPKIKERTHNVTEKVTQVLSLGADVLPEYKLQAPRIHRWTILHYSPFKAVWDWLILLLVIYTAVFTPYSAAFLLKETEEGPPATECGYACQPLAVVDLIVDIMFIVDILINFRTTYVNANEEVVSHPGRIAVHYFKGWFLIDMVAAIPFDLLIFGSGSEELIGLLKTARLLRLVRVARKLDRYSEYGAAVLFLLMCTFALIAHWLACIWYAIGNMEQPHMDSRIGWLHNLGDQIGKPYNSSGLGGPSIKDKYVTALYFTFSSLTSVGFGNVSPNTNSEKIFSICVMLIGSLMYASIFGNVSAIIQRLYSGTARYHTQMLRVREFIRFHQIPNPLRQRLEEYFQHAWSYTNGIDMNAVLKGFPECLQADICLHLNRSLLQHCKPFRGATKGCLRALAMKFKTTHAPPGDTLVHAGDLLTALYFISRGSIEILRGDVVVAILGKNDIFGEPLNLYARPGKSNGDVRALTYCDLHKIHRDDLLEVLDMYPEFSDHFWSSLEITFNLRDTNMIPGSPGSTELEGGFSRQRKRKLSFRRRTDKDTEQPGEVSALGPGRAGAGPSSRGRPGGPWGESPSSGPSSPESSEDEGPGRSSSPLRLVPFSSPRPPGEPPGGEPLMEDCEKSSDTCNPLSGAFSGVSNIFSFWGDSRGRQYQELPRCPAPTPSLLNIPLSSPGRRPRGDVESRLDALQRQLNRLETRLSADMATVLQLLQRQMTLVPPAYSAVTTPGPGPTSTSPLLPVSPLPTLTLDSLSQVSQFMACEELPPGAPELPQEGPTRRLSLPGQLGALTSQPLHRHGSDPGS
row,Structure (SMILES),"hERG current change (%, negative = inhibition) at 10uM [%]"
1,Cc1cc(C)c(NC(=O)COC(=O)c2nc3nccc(C)n3n2)c(Cl)c1,-8.2
2,COC(=O)CNc1nc(C2CC2)nc2c1nnn2Cc1ccccc1Cl,-8.66
3,CCCn1c(N)c(C(=O)CSc2nc3ccccc3s2)c(=O)[nH]c1=O,-2.95
4,CC(=O)OCC1OC(n2ccc(=O)[nH]c2=O)C(O)C1O (stereo not drawn),11.6
5,Cc1cc(C(=O)NCCc2ccc(Cl)cc2)no1,6.19
6,Cc1ccc(C2=N/C(=C\c3ccc(OS(=O)(=O)c4ccc(C)cc4)cc3)C(=O)O2)cc1,10.7
7,Cc1cc(C(=O)OC(C)C(=O)Nc2cccc(S(=O)(=O)N3CCOCC3)c2)c(C)o1 (stereo not drawn),-23.1
8,COC(=O)c1c(NC(=O)C(=O)N2CCCC2)sc2c1CC(C)(C)OC2,11.7
9,CCCOc1ccccc1N/C(=N/c1nc(C)cc(C)n1)NC(=O)COc1ccc(OC)cc1,-10
10,Cc1ccc(C)c(NC(=O)CSc2nnc(CNC(=O)c3ccco3)n2C)c1,3.14
11,COc1cc(C)c(-c2cc(C(=O)O)c(C)o2)cc1C(C)C,16.3
12,COc1ccc(-n2c(SCC#N)nnc2-c2cccnc2)cc1,-34
13,CC(=O)Nc1cccc(N=NN2CCOCC2)c1,9.55
14,O=C(Nc1cccc(-c2nnc(-c3ccccc3)o2)c1)C1CC1,-19.3
15,CC(=O)c1nn(-c2cccc(Br)c2)cc1C(=O)c1ccc(Cl)cc1,0.551
16,Cc1ccc(NC(=O)c2cc(N3C(=O)C4CC=CCC4C3=O)ccc2N2CCOCC2)cc1Cl (stereo not drawn),4.08
17,COc1ccc(NC(=O)CN(C)C(=O)c2ccc(=O)[nH]c2)cc1,21.7
18,CCc1cn(S(=O)(=O)c2ccccc2OC)nc1N,1.19
19,COc1ccc(OC)c2sc(NC(=O)C3=COCCO3)nc12,10.4

row,Structure (SMILES),"hERG current change (%, negative = inhibition) at 10uM [%]"
1,O=C(Cc1ccc2c(c1)OCCO2)Nc1cccc(S(=O)(=O)N2CCOCC2)c1,-26.4
2,CCOC(=O)C1(CC)NC(c2cccc(F)c2)C2C(=O)N(CC)C(=O)C21 (stereo not drawn),-8.42
3,COc1ccc(Br)cc1CN1CCC(N2CCCC2)CC1.O=C(O)C(=O)O,-2.59
4,Cc1cc(C)n(CCOC(=O)C2C(C=C(Cl)Cl)C2(C)C)n1 (stereo not drawn),-22.1
5,COc1ccc(NC(=O)/C(C#N)=C\c2cc(OC)c(OCc3ccc(C(=O)O)cc3)cc2Br)cc1,14
6,C=CCn1cccc(C(=O)Nc2ccc(OC)c(Cl)c2)c1=O,-7.3
7,Cc1cc(F)ccc1S(=O)(=O)N1CCCOC1CNC(=O)C(=O)NCc1ccncc1 (stereo not drawn),-1.47
8,O=C(O)c1cccc(CN2C(=O)c3ccccc3C2=O)c1,3.71
9,COC(=O)C1=CN(c2ccc(F)cc2)C=C(C(=O)OC)C1c1ccc(O)cc1,-7.62
10,O=C(C1CC(=O)N(C2CCCCC2)C1)N1CCC2(CC1)OCCO2 (stereo not drawn),8.28
11,Cc1cc(=O)nc2c3ccccc3n(C(C)C(=O)Nc3c(F)c(F)c(F)c(F)c3F)n12 (stereo not drawn),-5.49
12,CN(C)S(=O)(=O)c1cccc(-c2cn3cc(Cl)ccc3n2)c1,7.03
13,Oc1ccc(C(=S)N2CCCCCC2)cc1,14.4
14,Cc1cc(C)n(C(=O)Cn2nc([N+](=O)[O-])cc2C)n1,-12.2
15,CC(=O)c1cccc(NC(=O)c2ccc(N(Cc3ccccc3)S(C)(=O)=O)cc2)c1,-5.79
16,CCOC(=O)c1c(C)n(C)c2ccc(OCC(O)Cn3nc(C)c(Br)c3C)cc12 (stereo not drawn),3.85
17,O=C(COc1ccc(S(=O)(=O)N2CCOCC2)cc1)NCCc1ccccc1,-13.4
18,O=S(=O)(Cc1ccccc1)Nc1ccc(Br)cn1,14.4
19,COc1ccccc1NC(=O)c1ccc(NC(=O)COC(=O)C2CC2C)cc1 (stereo not drawn),-16.6

row,Structure (SMILES),"hERG current change (%, negative = inhibition) at 10uM [%]"
1,Cc1cccc(-n2nc(C(=O)c3ccco3)cc(-c3nc4ccccc4[nH]3)c2=N)c1,-65.7
2,Cc1cc(Nc2ccccc2C(=O)O)n(-c2ccc([N+](=O)[O-])cc2)n1,4.19
3,O=C(NC1CCCCC1)c1c(O)nc2sccn2c1=O,-26
4,Cc1ccc(C(c2cc(Cl)c3cccnc3c2O)N2CCN(C)CC2)cc1 (stereo not drawn),-9.97
5,c1ccc2nc3[nH]cnc3nc2c1,-5.15
6,O=C(NC1CCCC1)c1cc(S(=O)(=O)N2CCOCC2)c(Cl)cc1Cl,-8.15
7,COc1ccc(S(=O)(=O)N2CCOCC2)cc1NC(=O)c1cc(=O)[nH]c2ccccc12,6.02
8,Cl.Cn1ccc2cc(NC(=O)Nc3cccnc3)ccc21.O,-4.02
9,N#CCSc1ccc(-c2nc3ccccc3[nH]2)cn1,10.4
10,CC(NC(=O)c1ccncc1)c1ccc(Br)cc1 (stereo not drawn),-0.842
11,N#CCSc1nc(N)c(C#N)c(C2CCCCC2)c1C#N,8.44
12,CC(C)CC1NC(=S)N(Cc2ccccc2)C1=O (stereo not drawn),0.969
13,CN(CC(=O)Nc1c(Cl)cccc1Cl)C(=O)c1ccc(-n2cncn2)c([N+](=O)[O-])c1,5.71
14,COc1ccc2c(c1)/C(=N/OC(=O)c1cccs1)CCC2,-0.994
15,Cc1onc(-c2ccccc2Cl)c1C(=O)NNC(=O)c1ccc(F)cc1,5.81
16,CC1=Nc2ccccc2N=C(N)C1c1ccccc1 (stereo not drawn),12.9
17,COC(=O)Cn1cc(C(=O)OC)c2ccccc21,-4.51
18,O=C(OCC1CC(c2ccccc2)=NO1)c1ccco1 (stereo not drawn),23
19,CCOc1ccc2nc(NC(=O)C(NS(=O)(=O)c3cccc4nsnc34)C(C)C)sc2c1 (stereo not drawn),3.06
